This is one part of the list.
What was measured:
Assay in all cases: glycan array binding signal (z-score within array); higher = stronger binding
Settings in all cases: glycan notation: IUPAC condensed, linker removed
[1] = target: Gal(b1-4)GlcNAc(b1-3)Gal(b1-4)GlcNAc(b1-2)[Gal(b1-4)GlcNAc(b1-3)Gal(b1-4)GlcNAc(b1-6)]Man(a1-6)[Gal(b1-4)GlcNAc(b1-3)Gal(b1-4)GlcNAc(b1-2)Man(a1-3)]Man(b1-4)GlcNAc(b1-4)GlcNAc
Outline: (§1)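 Columns mapping to the same glycan were averaged after glycan names were converted to IUPAC-condensed notation. The data come from 3228 arrays in the Consortium for Functional Glycomics database, limited to those with an available protein sequence. Binding is reported as a within-array Z-score averaged across arrays of one protein sequence and across linkers.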

[2] = target: Gal(b1-4)GlcNAc(b1-3)Gal(b1-4)GlcNAc(b1-2)[Gal(b1-4)GlcNAc(b1-3)Gal(b1-4)GlcNAc(b1-6)]Man(a1-6)[Gal(b1-4)GlcNAc(b1-3)Gal(b1-4)GlcNAc(b1-2)Man(a1-3)]Man(b1-4)GlcNAc(b1-4)[Fuc(a1-6)]GlcNAc
Outline: as §1

[3] = target: Gal(b1-4)GlcNAc(b1-3)Gal(b1-4)GlcNAc(b1-3)Gal(b1-4)GlcNAc
Outline: as §1

[4] = target: Gal(b1-4)GlcNAc(b1-3)Gal(b1-4)GlcNAc(b1-3)Gal(b1-4)GlcNAc(b1-2)Man(a1-3)[Gal(b1-4)GlcNAc(b1-3)Gal(b1-4)GlcNAc(b1-3)Gal(b1-4)GlcNAc(b1-2)Man(a1-6)]Man(b1-4)GlcNAc(b1-4)GlcNAc
Outline: as §1

[5] = target: Gal(b1-4)GlcNAc(b1-3)Gal(b1-4)GlcNAc(b1-3)Gal(b1-4)GlcNAc(b1-2)Man(a1-3)[Gal(b1-4)GlcNAc(b1-3)Gal(b1-4)GlcNAc(b1-3)Gal(b1-4)GlcNAc(b1-2)Man(a1-6)]Man(b1-4)GlcNAc(b1-4)[Fuc(a1-6)]GlcNAc
Outline: as §1

[6] = target: Gal(b1-4)GlcNAc(b1-3)Gal(b1-4)GlcNAc(b1-3)Gal(b1-4)GlcNAc(b1-2)[Gal(b1-4)GlcNAc(b1-3)Gal(b1-4)GlcNAc(b1-3)Gal(b1-4)GlcNAc(b1-6)]Man(a1-6)[Gal(b1-4)GlcNAc(b1-3)Gal(b1-4)GlcNAc(b1-3)Gal(b1-4)GlcNAc(b1-2)Man(a1-3)]Man(b1-4)GlcNAc(b1-4)[Fuc(a1-6)]GlcNAc
Outline: as §1

[7] = target: Gal(b1-4)GlcNAc(b1-3)Gal(b1-4)GlcNAc(b1-3)Gal(b1-4)GlcNAc(b1-3)Gal(b1-4)GlcNAc(b1-2)Man(a1-3)[Gal(b1-4)GlcNAc(b1-3)Gal(b1-4)GlcNAc(b1-3)Gal(b1-4)GlcNAc(b1-3)Gal(b1-4)GlcNAc(b1-2)Man(a1-6)]Man(b1-4)GlcNAc(b1-4)GlcNAc
Outline: as §1

[8] = target: Gal(b1-4)GlcNAc(b1-3)Gal(b1-4)GlcNAc(b1-3)Gal(b1-4)GlcNAc(b1-3)Gal(b1-4)GlcNAc(b1-2)Man(a1-3)[Gal(b1-4)GlcNAc(b1-3)Gal(b1-4)GlcNAc(b1-3)Gal(b1-4)GlcNAc(b1-3)Gal(b1-4)GlcNAc(b1-2)Man(a1-6)]Man(b1-4)GlcNAc(b1-4)[Fuc(a1-6)]GlcNAc
Outline: as §1

[9] = target: Gal(b1-4)GlcNAc(b1-3)Gal(b1-4)GlcNAc(b1-3)Gal(b1-4)GlcNAc(b1-3)Gal(b1-4)GlcNAc(b1-2)[Gal(b1-4)GlcNAc(b1-3)Gal(b1-4)GlcNAc(b1-3)Gal(b1-4)GlcNAc(b1-3)Gal(b1-4)GlcNAc(b1-6)]Man(a1-6)[Gal(b1-4)GlcNAc(b1-3)Gal(b1-4)GlcNAc(b1-3)Gal(b1-4)GlcNAc(b1-3)Gal(b1-4)GlcNAc(b1-2)Man(a1-3)]Man(b1-4)GlcNAc(b1-4)[Fuc(a1-6)]GlcNAc
Outline: as §1

[10] = target: Gal(b1-4)GlcNAc(b1-3)Gal(b1-4)GlcNAc(b1-3)Gal(b1-4)GlcNAc(b1-3)Gal(b1-4)GlcNAc(b1-3)Gal(b1-4)GlcNAc(b1-2)Man(a1-3)[Gal(b1-4)GlcNAc(b1-3)Gal(b1-4)GlcNAc(b1-3)Gal(b1-4)GlcNAc(b1-3)Gal(b1-4)GlcNAc(b1-3)Gal(b1-4)GlcNAc(b1-2)Man(a1-6)]Man(b1-4)GlcNAc(b1-4)GlcNAc
Outline: as §1

[11] = target: Gal(b1-4)GlcNAc(b1-3)Gal(b1-4)GlcNAc(b1-3)Gal(b1-4)GlcNAc(b1-3)Gal(b1-4)GlcNAc(b1-3)Gal(b1-4)GlcNAc(b1-2)Man(a1-3)[Gal(b1-4)GlcNAc(b1-3)Gal(b1-4)GlcNAc(b1-3)Gal(b1-4)GlcNAc(b1-3)Gal(b1-4)GlcNAc(b1-3)Gal(b1-4)GlcNAc(b1-2)Man(a1-6)]Man(b1-4)GlcNAc(b1-4)[Fuc(a1-6)]GlcNAc
Outline: as §1

[12] = target: Gal(b1-4)GlcNAc(b1-3)Gal(b1-4)GlcNAc(b1-3)Gal(b1-4)GlcNAc(b1-3)Gal(b1-4)GlcNAc(b1-3)Gal(b1-4)GlcNAc(b1-2)[Gal(b1-4)GlcNAc(b1-3)Gal(b1-4)GlcNAc(b1-3)Gal(b1-4)GlcNAc(b1-3)Gal(b1-4)GlcNAc(b1-3)Gal(b1-4)GlcNAc(b1-6)]Man(a1-6)[Gal(b1-4)GlcNAc(b1-3)Gal(b1-4)GlcNAc(b1-3)Gal(b1-4)GlcNAc(b1-3)Gal(b1-4)GlcNAc(b1-3)Gal(b1-4)GlcNAc(b1-2)Man(a1-3)]Man(b1-4)GlcNAc(b1-4)[Fuc(a1-6)]GlcNAc
Outline: as §1

[13] = target: Gal(b1-4)GlcNAc(b1-3)Gal(b1-4)GlcNAc(b1-3)Gal(b1-4)GlcNAc(b1-3)Gal(b1-4)GlcNAc(b1-3)Gal(b1-4)GlcNAc(b1-3)Gal(b1-4)GlcNAc(b1-2)Man(a1-3)[Gal(b1-4)GlcNAc(b1-3)Gal(b1-4)GlcNAc(b1-3)Gal(b1-4)GlcNAc(b1-3)Gal(b1-4)GlcNAc(b1-3)Gal(b1-4)GlcNAc(b1-3)Gal(b1-4)GlcNAc(b1-2)Man(a1-6)]Man(b1-4)GlcNAc(b1-4)GlcNAc
Outline: as §1

[14] = target: Gal(b1-4)GlcNAc(b1-3)Gal(b1-4)GlcNAc(b1-3)GalNAc
Outline: as §1

[15] = target: Gal(b1-4)GlcNAc(b1-3)Gal(b1-4)GlcNAc(b1-3)[Gal(b1-4)GlcNAc(b1-3)Gal(b1-4)GlcNAc(b1-6)]GalNAc
Outline: as §1

[16] = target: Gal(b1-4)GlcNAc(b1-3)Gal(b1-4)GlcNAc(b1-6)[Gal(b1-3)]GalNAc
Outline: as §1

[17] = target: Gal(b1-4)GlcNAc(b1-3)Gal(b1-4)[Fuc(a1-3)]GlcNAc(b1-3)Gal(b1-4)[Fuc(a1-3)]GlcNAc
Outline: as §1

[18] = target: Gal(b1-4)GlcNAc(b1-3)GalNAc
Outline: as §1

[19] = target: Gal(b1-4)GlcNAc(b1-3)[Fuc(a1-3)GlcNAc(b1-6)]Gal(b1-4)Glc
Outline: as §1

[20] = target: Gal(b1-4)GlcNAc(b1-3)[Gal(b1-4)GlcNAc(b1-6)]Gal(b1-4)GlcNAc
Outline: as §1

[21] = target: Gal(b1-4)GlcNAc(b1-3)[GlcNAc(b1-6)]Gal(b1-4)GlcNAc
Outline: as §1

[22] = target: Gal(b1-4)GlcNAc(b1-6)Gal(b1-4)GlcNAc
Outline: as §1

[23] = target: Gal(b1-4)GlcNAc(b1-6)GalNAc
Outline: as §1

[24] = target: Gal(b1-4)GlcNAc(b1-6)[Gal(b1-3)]GalNAc
Outline: as §1

[25] = target: Gal(b1-4)GlcNAc(b1-6)[Gal(b1-4)GlcNAc(b1-3)]GalNAc
Outline: as §1

Gal(b1-4)GlcNAc6P = target: Gal(b1-4)GlcNAc6P
Outline: as §1

Gal(b1-6)Gal = target: Gal(b1-6)Gal
Outline: as §1

Gal3S(b1-3)GalNAc = target: Gal3S(b1-3)GalNAc
Outline: as §1

Gal3S(b1-3)GlcNAc = target: Gal3S(b1-3)GlcNAc
Outline: as §1

[26] = target: Gal3S(b1-3)[Fuc(a1-4)]GlcNAc
Outline: as §1

Gal3S(b1-4)Glc = target: Gal3S(b1-4)Glc
Outline: as §1

Gal3S(b1-4)Glc6S = target: Gal3S(b1-4)Glc6S
Outline: as §1

Gal3S(b1-4)GlcNAc = target: Gal3S(b1-4)GlcNAc
Outline: as §1

[27] = target: Gal3S(b1-4)[Fuc(a1-3)]Glc6S
Outline: as §1

[28] = target: Gal3S(b1-4)[Fuc(a1-3)]GlcNAc
Outline: as §1

[29] = target: Gal3S(b1-4)[Fuc(a1-3)]GlcNAc6S
Outline: as §1

Gal3S4S(b1-4)GlcNAc = target: Gal3S4S(b1-4)GlcNAc
Outline: as §1

B1: Cohesin-mDCIR (Macaca mulatta) (protein)
chain: GLDDLDAVRIKVDTVNAKPGDTVRIPVRFSGIPSKGIANCDFVYSYDPNVLEIIEIEPGDIIVDPNPDKSFDTAVYPDRKIIVFLFAEDSGTGAYAITKDGVFATIVAKVKEGAPNGLSVIKFVEVGGFANNDLVEQKTQFFDGGVNVGDTTEPATPTTPVTTPTTTDDLDAASFQKYSQLLEKMTTKDLVHTTLECVKKNMTTEETAWSCCPKNWKPFSSNCYFISTESASWQKSEKDCARMEAHLLVINTREEQDFIFQNLQEESAYFVGLSDPEGQRHWQWVDRTPYNESSTFWHPHEPSDPDERCVVLNFRKTPKRWGWNDVHCIVHQRSVCEMMKIHLHHHHHH
In the case of B1, the “glycan array binding signal (z-score)” value [1] is reported as 0.916, the “glycan array binding signal (z-score)” value [2] is reported as -0.136 and the “glycan array binding signal (z-score)” value [3] is reported as -0.346. The “glycan array binding signal (z-score)” value [4] was -0.081, the “glycan array binding signal (z-score)” value [5] was 0.022 and the “glycan array binding signal (z-score)” value [6] was 0.012. The “glycan array binding signal (z-score)” value [7] was -0.061, the “glycan array binding signal (z-score)” value [8] was 0.53 and the “glycan array binding signal (z-score)” value [9] was 0.971. For the same binder, the “glycan array binding signal (z-score)” value [10] was 0.152, the “glycan array binding signal (z-score)” value [11] was 0.068 and the “glycan array binding signal (z-score)” value [12] was 0.462. For the same binder, the “glycan array binding signal (z-score)” value [13] was -0.273, the “glycan array binding signal (z-score)” value [14] was -0.296 and the “glycan array binding signal (z-score)” value [15] was -0.117. The “glycan array binding signal (z-score)” value [16] was 0.082, the “glycan array binding signal (z-score)” value [17] was -0.37 and the “glycan array binding signal (z-score)” value [18] was -0.411. For the same binder, the “glycan array binding signal (z-score)” value [19] was -0.134, the “glycan array binding signal (z-score)” value [20] was -0.43 and the “glycan array binding signal (z-score)” value [21] was -0.163. For the same binder, the “glycan array binding signal (z-score)” value [22] was 0.023, the “glycan array binding signal (z-score)” value [23] was 0.647 and the “glycan array binding signal (z-score)” value [24] was -0.356. The “glycan array binding signal (z-score)” value [25] was -0.399, the “glycan array binding signal (z-score)” value (Gal(b1-4)GlcNAc6P) was -0.459 and the “glycan array binding signal (z-score)” value (Gal(b1-6)Gal) was -0.36. For the same binder, the “glycan array binding signal (z-score)” value (Gal3S(b1-3)GalNAc) was 1.42, the “glycan array binding signal (z-score)” value (Gal3S(b1-3)GlcNAc) was 0.354 and the “glycan array binding signal (z-score)” value [26] was 0.116. For the same binder, the “glycan array binding signal (z-score)” value (Gal3S(b1-4)Glc) was 5.11, the “glycan array binding signal (z-score)” value (Gal3S(b1-4)Glc6S) was 1.61 and the “glycan array binding signal (z-score)” value (Gal3S(b1-4)GlcNAc) was 0.532. The “glycan array binding signal (z-score)” value [27] was -0.263, the “glycan array binding signal (z-score)” value [28] was -0.231 and the “glycan array binding signal (z-score)” value [29] was 1.55. The “glycan array binding signal (z-score)” value (Gal3S4S(b1-4)GlcNAc) was -0.271.
